Laboratory results published in PubChem BioAssay AID326 (DTP/NCI, 2004).
Toxic doses and inconclusive results are not listed. Not every entry of the source has a single result; some have several. Only these are listed. The source may hold further records. The values listed for one entry are repeats in other runs, samples, wells, individuals or studies.

Test system: CD2F1 mice, P388/DHAQ leukemia ip, median survival T/C
Assay: NCI In Vivo Anticancer Drug Screen. Data for tumor model P388 Leukemia resistant to Dihydroxy Anthracenedione; NSC 299195 (intraperitoneal) in CD2F1 (CDF1) mice
Details: endpoint: median survival time, vehicle: saline, higher = longer survival
Experimental: The antitumor activity of compounds was measured in mice bearing transplantable tumors. Survival or tumor size were measured and the results are expressed as the measurement made in the treated group (T) divided by the measurement made in the vehicle treated control group (C). The tumor model used in this assay is P388 Leukemia resistant to Dihydroxy Anthracenedione; NSC 299195 (intraperitoneal) in CD2F1 (CDF1) mice

N[C@@H](Cc1ccc(N(CCCl)CCCl)cc1)C(=O)O
T/C (dose: 5.4 mg/kg/injection, schedule: Q04DX002 (ip)): 122 % of control and 165 % of control

O=c1[nH]cc(F)c(=O)[nH]1
T/C (dose: 21.6 mg/kg/injection, schedule: Q04DX003 (ip)): 107 % of control and 160 % of control | T/C (dose: 36.0 mg/kg/injection, schedule: Q04DX003 (ip)): 105 % of control and 156 % of control
